The supplement of paper PMC12230231

These sequences were tested on SIVsab (simian immunodeficiency virus of sabaeus monkeys), single-cycle GFP reporter, in CRFK cells (assay: enrichment among uninfected cells over input (fold); higher = stronger restriction). Conditions: library: human / rhesus combinations.
Protocol: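 Pools of CRFK cells expressing variants of the TRIM5α v1 loop were challenged with the single-cycle reporter, sorted by GFP and sequenced; mean of two replicates.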

Sequence | enrichment
MASGILVNVKEEVTCPICLELLTQPLSLDCGHSFCQACLTANHKKSMLDKGESSCPVCRISYQPENIRPNRHVANIVEKLREVKLSPEGQKVDHCARHGEKLLLFCQEDGKVICWLCERSQEHRGHHTFLTEEVAREYQVKLQAALEMLRQKQQEAEELEADIREEKASWKTQIQYDKTNVLADFEQLRDILDWEESNELQNLEKEEEDILKSLTNSETEMVQQTQSLRELISDLEHRLQGSVMELLQGVDGVIKRTENVTLKKPETFPKNQRRVFRAPDLKGMLEVFRELTDVRRYWVDVTVAPNNISCAVISEDKRQVSSPKPQIIYGAPGTRYTFPSFTNFNYCTGILGSQSITSGKHYWEVDVSKKTAWILGVCAGFQPDAMCNIEKNENYQPKYGYWVIGLEEGVKCSAFQDSSFHTPSVPFIVPLSVIICPDRVGVFLDYEACTVSFFNITNHGFLIYKFSHCSFSQPVFPYLNPRKCGVPMTLCSPSS [human TRIM5α, 330-340 = GAPGTRYTFPSFT] | 0.104 ± 0.098
MASGILVNVKEEVTCPICLELLTQPLSLDCGHSFCQACLTANHKKSMLDKGESSCPVCRISYQPENIRPNRHVANIVEKLREVKLSPEGQKVDHCARHGEKLLLFCQEDGKVICWLCERSQEHRGHHTFLTEEVAREYQVKLQAALEMLRQKQQEAEELEADIREEKASWKTQIQYDKTNVLADFEQLRDILDWEESNELQNLEKEEEDILKSLTNSETEMVQQTQSLRELISDLEHRLQGSVMELLQGVDGVIKRTENVTLKKPETFPKNQRRVFRAPDLKGMLEVFRELTDVRRYWVDVTVAPNNISCAVISEDKRQVSSPKPQIIYGAPGTLFTFPSLVNFNYCTGILGSQSITSGKHYWEVDVSKKTAWILGVCAGFQPDAMCNIEKNENYQPKYGYWVIGLEEGVKCSAFQDSSFHTPSVPFIVPLSVIICPDRVGVFLDYEACTVSFFNITNHGFLIYKFSHCSFSQPVFPYLNPRKCGVPMTLCSPSS [human TRIM5α, 330-340 = GAPGTLFTFPSLV] | 9.96 ± 0.21
MASGILVNVKEEVTCPICLELLTQPLSLDCGHSFCQACLTANHKKSMLDKGESSCPVCRISYQPENIRPNRHVANIVEKLREVKLSPEGQKVDHCARHGEKLLLFCQEDGKVICWLCERSQEHRGHHTFLTEEVAREYQVKLQAALEMLRQKQQEAEELEADIREEKASWKTQIQYDKTNVLADFEQLRDILDWEESNELQNLEKEEEDILKSLTNSETEMVQQTQSLRELISDLEHRLQGSVMELLQGVDGVIKRTENVTLKKPETFPKNQRRVFRAPDLKGMLEVFRELTDVRRYWVDVTVAPNNISCAVISEDKRQVSSPKPQIIYQARGTRYTFQTLVNFNYCTGILGSQSITSGKHYWEVDVSKKTAWILGVCAGFQPDAMCNIEKNENYQPKYGYWVIGLEEGVKCSAFQDSSFHTPSVPFIVPLSVIICPDRVGVFLDYEACTVSFFNITNHGFLIYKFSHCSFSQPVFPYLNPRKCGVPMTLCSPSS [human TRIM5α, 330-340 = QARGTRYTFQTLV] | 0.203 ± 0.01
MASGILVNVKEEVTCPICLELLTQPLSLDCGHSFCQACLTANHKKSMLDKGESSCPVCRISYQPENIRPNRHVANIVEKLREVKLSPEGQKVDHCARHGEKLLLFCQEDGKVICWLCERSQEHRGHHTFLTEEVAREYQVKLQAALEMLRQKQQEAEELEADIREEKASWKTQIQYDKTNVLADFEQLRDILDWEESNELQNLEKEEEDILKSLTNSETEMVQQTQSLRELISDLEHRLQGSVMELLQGVDGVIKRTENVTLKKPETFPKNQRRVFRAPDLKGMLEVFRELTDVRRYWVDVTVAPNNISCAVISEDKRQVSSPKPQIIYGARGTLFTFPTFTNFNYCTGILGSQSITSGKHYWEVDVSKKTAWILGVCAGFQPDAMCNIEKNENYQPKYGYWVIGLEEGVKCSAFQDSSFHTPSVPFIVPLSVIICPDRVGVFLDYEACTVSFFNITNHGFLIYKFSHCSFSQPVFPYLNPRKCGVPMTLCSPSS [human TRIM5α, 330-340 = GARGTLFTFPTFT] | 0.0963 ± 0.078
MASGILVNVKEEVTCPICLELLTQPLSLDCGHSFCQACLTANHKKSMLDKGESSCPVCRISYQPENIRPNRHVANIVEKLREVKLSPEGQKVDHCARHGEKLLLFCQEDGKVICWLCERSQEHRGHHTFLTEEVAREYQVKLQAALEMLRQKQQEAEELEADIREEKASWKTQIQYDKTNVLADFEQLRDILDWEESNELQNLEKEEEDILKSLTNSETEMVQQTQSLRELISDLEHRLQGSVMELLQGVDGVIKRTENVTLKKPETFPKNQRRVFRAPDLKGMLEVFRELTDVRRYWVDVTVAPNNISCAVISEDKRQVSSPKPQIIYGAPGTLYPSFTNFNYCTGILGSQSITSGKHYWEVDVSKKTAWILGVCAGFQPDAMCNIEKNENYQPKYGYWVIGLEEGVKCSAFQDSSFHTPSVPFIVPLSVIICPDRVGVFLDYEACTVSFFNITNHGFLIYKFSHCSFSQPVFPYLNPRKCGVPMTLCSPSS [human TRIM5α, 330-340 = GAPGTLYPSFT] | 0.00614 ± 0.00012
MASGILVNVKEEVTCPICLELLTQPLSLDCGHSFCQACLTANHKKSMLDKGESSCPVCRISYQPENIRPNRHVANIVEKLREVKLSPEGQKVDHCARHGEKLLLFCQEDGKVICWLCERSQEHRGHHTFLTEEVAREYQVKLQAALEMLRQKQQEAEELEADIREEKASWKTQIQYDKTNVLADFEQLRDILDWEESNELQNLEKEEEDILKSLTNSETEMVQQTQSLRELISDLEHRLQGSVMELLQGVDGVIKRTENVTLKKPETFPKNQRRVFRAPDLKGMLEVFRELTDVRRYWVDVTVAPNNISCAVISEDKRQVSSPKPQIIYGAPGTRFPSFVNFNYCTGILGSQSITSGKHYWEVDVSKKTAWILGVCAGFQPDAMCNIEKNENYQPKYGYWVIGLEEGVKCSAFQDSSFHTPSVPFIVPLSVIICPDRVGVFLDYEACTVSFFNITNHGFLIYKFSHCSFSQPVFPYLNPRKCGVPMTLCSPSS [human TRIM5α, 330-340 = GAPGTRFPSFV] | 0.001016 ± 5e-06
MASGILVNVKEEVTCPICLELLTQPLSLDCGHSFCQACLTANHKKSMLDKGESSCPVCRISYQPENIRPNRHVANIVEKLREVKLSPEGQKVDHCARHGEKLLLFCQEDGKVICWLCERSQEHRGHHTFLTEEVAREYQVKLQAALEMLRQKQQEAEELEADIREEKASWKTQIQYDKTNVLADFEQLRDILDWEESNELQNLEKEEEDILKSLTNSETEMVQQTQSLRELISDLEHRLQGSVMELLQGVDGVIKRTENVTLKKPETFPKNQRRVFRAPDLKGMLEVFRELTDVRRYWVDVTVAPNNISCAVISEDKRQVSSPKPQIIYQAPGTRYPSFVNFNYCTGILGSQSITSGKHYWEVDVSKKTAWILGVCAGFQPDAMCNIEKNENYQPKYGYWVIGLEEGVKCSAFQDSSFHTPSVPFIVPLSVIICPDRVGVFLDYEACTVSFFNITNHGFLIYKFSHCSFSQPVFPYLNPRKCGVPMTLCSPSS [human TRIM5α, 330-340 = QAPGTRYPSFV] | 0.00996 ± 0.0096

Same assay, conditions: library: insertions and deletions

Sequence | enrichment
MASGILVNVKEEVTCPICLELLTQPLSLDCGHSFCQACLTANHKKSMLDKGESSCPVCRISYQPENIRPNRHVANIVEKLREVKLSPEGQKVDHCARHGEKLLLFCQEDGKVICWLCERSQEHRGHHTFLTEEVAREYQVKLQAALEMLRQKQQEAEELEADIREEKASWKTQIQYDKTNVLADFEQLRDILDWEESNELQNLEKEEEDILKSLTNSETEMVQQTQSLRELISDLEHRLQGSVMELLQGVDGVIKRTENVTLKKPETFPKNQRRVFRAPDLKGMLEVFRELTDVRRYWVDVTVAPNNISCAVISEDKRQVSSPKPQIIYGARGTRYQTFTFVNFNYCTGILGSQSITSGKHYWEVDVSKKTAWILGVCAGFQPDAMCNIEKNENYQPKYGYWVIGLEEGVKCSAFQDSSFHTPSVPFIVPLSVIICPDRVGVFLDYEACTVSFFNITNHGFLIYKFSHCSFSQPVFPYLNPRKCGVPMTLCSPSS [human TRIM5α, 2-codon duplication at 338] | 1.03 ± 1.3
MASGILVNVKEEVTCPICLELLTQPLSLDCGHSFCQACLTANHKKSMLDKGESSCPVCRISYQPENIRPNRHVANIVEKLREVKLSPEGQKVDHCARHGEKLLLFCQEDGKVICWLCERSQEHRGHHTFLTEEVAREYQVKLQAALEMLRQKQQEAEELEADIREEKASWKTQIQYDKTNVLADFEQLRDILDWEESNELQNLEKEEEDILKSLTNSETEMVQQTQSLRELISDLEHRLQGSVMELLQGVDGVIKRTENVTLKKPETFPKNQRRVFRAPDLKGMLEVFRELTDVRRYWVDVTVAPNNISCAVISEDKRQVSSPKPQIIYGARGARGTRYQTFVNFNYCTGILGSQSITSGKHYWEVDVSKKTAWILGVCAGFQPDAMCNIEKNENYQPKYGYWVIGLEEGVKCSAFQDSSFHTPSVPFIVPLSVIICPDRVGVFLDYEACTVSFFNITNHGFLIYKFSHCSFSQPVFPYLNPRKCGVPMTLCSPSS [human TRIM5α, 3-codon duplication at 330] | 0.92 ± 0.098
MASGILVNVKEEVTCPICLELLTQPLSLDCGHSFCQACLTANHKKSMLDKGESSCPVCRISYQPENIRPNRHVANIVEKLREVKLSPEGQKVDHCARHGEKLLLFCQEDGKVICWLCERSQEHRGHHTFLTEEVAREYQVKLQAALEMLRQKQQEAEELEADIREEKASWKTQIQYDKTNVLADFEQLRDILDWEESNELQNLEKEEEDILKSLTNSETEMVQQTQSLRELISDLEHRLQGSVMELLQGVDGVIKRTENVTLKKPETFPKNQRRVFRAPDLKGMLEVFRELTDVRRYWVDVTVAPNNISCAVISEDKRQVSSPKPQIIYGARGTRFNYCTGILGSQSITSGKHYWEVDVSKKTAWILGVCAGFQPDAMCNIEKNENYQPKYGYWVIGLEEGVKCSAFQDSSFHTPSVPFIVPLSVIICPDRVGVFLDYEACTVSFFNITNHGFLIYKFSHCSFSQPVFPYLNPRKCGVPMTLCSPSS [human TRIM5α, 6-codon deletion at 336] | 0.525 ± 0.0057
MASGILVNVKEEVTCPICLELLTQPLSLDCGHSFCQACLTANHKKSMLDKGESSCPVCRISYQPENIRPNRHVANIVEKLREVKLSPEGQKVDHCARHGEKLLLFCQEDGKVICWLCERSQEHRGHHTFLTEEVAREYQVKLQAALEMLRQKQQEAEELEADIREEKASWKTQIQYDKTNVLADFEQLRDILDWEESNELQNLEKEEEDILKSLTNSETEMVQQTQSLRELISDLEHRLQGSVMELLQGVDGVIKRTENVTLKKPETFPKNQRRVFRAPDLKGMLEVFRELTDVRRYWVDVTVAPNNISCAVISEDKRQVSSPKPQIIYGARGTRYQTFVNFNYCNFNYCTGILGSQSITSGKHYWEVDVSKKTAWILGVCAGFQPDAMCNIEKNENYQPKYGYWVIGLEEGVKCSAFQDSSFHTPSVPFIVPLSVIICPDRVGVFLDYEACTVSFFNITNHGFLIYKFSHCSFSQPVFPYLNPRKCGVPMTLCSPSS [human TRIM5α, 5-codon duplication at 341] | 2.13 ± 2.4
MASGILVNVKEEVTCPICLELLTQPLSLDCGHSFCQACLTANHKKSMLDKGESSCPVCRISYQPENIRPNRHVANIVEKLREVKLSPEGQKVDHCARHGEKLLLFCQEDGKVICWLCERSQEHRGHHTFLTEEVAREYQVKLQAALEMLRQKQQEAEELEADIREEKASWKTQIQYDKTNVLADFEQLRDILDWEESNELQNLEKEEEDILKSLTNSETEMVQQTQSLRELISDLEHRLQGSVMELLQGVDGVIKRTENVTLKKPETFPKNQRRVFRAPDLKGMLEVFRELTDVRRYWVDVTVAPNNISCAVISEDKRQVSSPKPQIIYGARGTRYQTFVNGSQSITSGKHYWEVDVSKKTAWILGVCAGFQPDAMCNIEKNENYQPKYGYWVIGLEEGVKCSAFQDSSFHTPSVPFIVPLSVIICPDRVGVFLDYEACTVSFFNITNHGFLIYKFSHCSFSQPVFPYLNPRKCGVPMTLCSPSS [human TRIM5α, 8-codon deletion at 342] | 1.41 ± 0.19

± gives the standard deviation of the averaged measurements. Restriction of a single-cycle SIVsab GFP reporter by TRIM5α v1-loop variants in CRFK cells. Human variants: read share among cells still uninfected after two challenges over input, higher = gained restriction. Rhesus variants: share among infected cells over input, higher = lost restriction. Reporter dose not given per row. No active / inactive call per row; the paper calls a change when both replicates lie above its controls (mean + 2 SD of stop or wild-type variants, or the top frameshift score). Residues outside the varied loop are taken from Swiss-Prot. The paper reads the human single-substitution scores as noise; they and the rhesus combinations repeat poorly (rank correlation 0.3 to 0.4), indel scores repeat only for the top variants, rhesus substitutions well (0.9).
